Results published in PubChem BioAssay AID1458 (National Center for Advancing Translational Sciences (NCATS), 2008).
In all, about 210,000 compounds went through this assay and about 5,900 (2.8%) were called active. Inconclusive results, whose numbers are uncertain, are shown with a selection of clear calls. Calls come from the whole dose curve; as a rule, active = well fitted activation curve with a large enough effect; inconclusive = small, poorly fitted or top-dose-only effect; inactive = no such curve, though single readings can be large or run the other way. Where the call is inconclusive, the potency comes from a doubtful curve fit.

test: qHTS Assay for Enhancers of SMN2 Splice Variant Expression; conditions: HEK293 SMN2-luciferase splicing reporter, luminescence, 30-36 h; activity change, positive = activation: at 46.1 µM (top of the series); note: nearly all actives have a fitted effect of over 55% in size; for activity change, positive = activation: % of control where 0% means no effect
Procedure, shortened: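 HEK293 cells carry an SMN2 […]–luciferase reporter in which exon 7 inclusion puts luciferase in frame. Cells were plated 10-12 h before compound addition, then incubated 30-36 h at 37C. ONE-Glo luminescence was read; sodium butyrate at 4.5 mM final served as control.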
Potency is the fitted concentration of half-maximal effect; tags give direction and shape of the fitted curve.

Compound | Potency | activity change, positive = activation
CCc1ccc(Nc2nc(N)nc(CSc3nnnn3-c3ccccc3)n2)cc1 | inconclusive: 35.5 µM [activator, partial curve, poor fit] | 
O=C(NC(=S)Nc1ccc2c(c1)OCO2)c1ccc(Cl)cc1 | active: 12.6 µM | 
COc1ccccc1OCC(=O)NCCSCc1cccc(Cl)c1 |  | inactive: 18.3%
O=C(NC(=S)Nc1cccc2[nH]ncc12)c1ccccc1 | inconclusive: 11.2 µM [activator, partial curve] | 
O=C1c2ccccc2-n2c1nc1ccccc1c2=O | inactive | 
N[C@@H](Cc1ccccc1)c1nnc2sc(SCc3ccccc3)nn12 | inconclusive: 0.0079 µM [activator, full curve] | 
CC(=O)c1cnc(Nc2ccc(C)cc2)s1 | inconclusive: 14.1 µM [activator, partial curve] | 
COC(=O)c1ccc(-c2nc3ccccc3o2)cc1 | inconclusive: 15.8 µM [activator, single point] | 
CNC(=O)c1nnsc1S(=O)c1ccc(Cl)cc1 (stereo unspecified) | inconclusive: 35.5 µM [activator, single point] | 
COc1cccc(C(=O)NC2(C(F)(F)F)N=C3SCCN3C2=O)c1 (stereo unspecified) | inconclusive: 22.4 µM [activator, single point] | 
COc1ccc(NC(=O)C2CC(=O)N(C(C)C)C2)cc1 (stereo unspecified) | inconclusive: 17.8 µM [activator, partial curve, poor fit] | 
CCOc1ccccc1OCC(=O)N/N=C(\C)Cc1ccc(OC)cc1 | inconclusive: 1.12 µM [activator, full curve] | 
O=C(c1ccc(-c2ccc([N+](=O)[O-])cc2Cl)o1)N1CCOCC1 | inconclusive: 15.8 µM [activator, single point] | 
Clc1ccc(N/N=C/c2ccncc2)cc1Cl | active: 12.6 µM | 
CCOc1c(Cl)cc(C(=O)Nc2ccccc2C(=O)O)cc1Cl | inconclusive: 31.6 µM [activator, single point] | 
C/C(=N\Nc1ccc(F)cc1F)c1ccc(N2CCOCC2)cc1 | inconclusive: 12.6 µM [activator, partial curve, poor fit] | 
CCOC(=O)c1sc(NC(=O)c2cc(CC)on2)c(C(=O)OCC)c1C |  | inactive: -4.01%
CC(=O)Nc1ccc(C(=O)OCc2ccc(Cl)c(Cl)c2)cc1 | inconclusive: 0.0708 µM [activator, full curve, poor fit] | 
Cn1c(NCc2ccccc2O)nc2ccccc21 | inconclusive: 17.8 µM [activator, single point] | 
Cc1csc(NC(=O)c2cc(-c3ccco3)nc3ccccc23)n1 |  | inactive: 1.18%
Cc1ccccc1NC(=O)c1ccc2c(c1)OCCO2 | inconclusive: 35.5 µM [activator, partial curve, poor fit] | 
CCOC(=O)c1cccc(NC(=O)N2Cc3ccccc3Oc3ncccc32)c1 |  | inactive: -11.5%
Cn1c(-c2ccc(Br)o2)nc2ccccc21 | active: 12.6 µM | 

Compound | Potency | activity change, positive = activation
CC(=O)/C(C#N)=C1\NC(=O)C(Cc2ccc(C)c(C)c2)S1 (stereo unspecified) | inconclusive: 35.5 µM [activator, single point] | 
Cc1nc2ccc(NC(=S)NC3CC3)cc2nc1C | inconclusive: 5.62 µM [activator, single point] | 
Cn1nnc2cc(C(=O)NCCC3=CCCCC3)ccc21 | active: 11.2 µM | 
Cc1nc(N)sc1-c1csc(N(C)c2ccc(O)cc2)n1 | inconclusive: 31.6 µM [activator, single point] | 
CC1CCc2c(sc3nnn(CC(=O)Nc4cccc(C(F)(F)F)c4)c(=O)c23)C1 (stereo unspecified) |  | inactive: 5.64%
CCc1ccc2oc(-c3cccc(NC(=O)c4ccc(-c5cccc([N+](=O)[O-])c5)o4)c3)nc2c1 | inconclusive: 25.1 µM [activator, single point] | 
COc1cccc([C@@H]2Oc3ccc(Br)cc3C(=O)[C@H]2O)c1 | inconclusive: 17.8 µM [activator, partial curve, poor fit] | 
COc1cc(/C=N/Nc2cc(C)nc(NS(=O)(=O)c3ccc(C)cc3)n2)ccc1O |  | inconclusive: 31.1% [activator]
CCc1c(C)nc2cc(-c3cc(OC)cc(OC)c3)nn2c1N1CCN(CCN2CCOCC2)CC1 |  | inactive: 8.74%
CCOc1ccc(NC(=O)NC(CC)Cn2nnc3ccccc3c2=O)cc1 (stereo unspecified) | inconclusive: 3.16 µM [activator, partial curve] | 
CCOC(=O)C1=CN(CC2CCCO2)C=C(C(=O)OCC)C1c1ccccc1C(F)(F)F (stereo unspecified) |  | inactive: -6.77%
CCOC(=O)CN1C(=O)S/C(=C/c2ccc3c(c2)n(C)c(=O)n3C)C1=O | active: 15.8 µM | 
CCN1C(=O)c2cccc3c(NS(=O)(=O)c4ccc(NC(C)=O)cc4)ccc1c23 | inconclusive: 15.8 µM [activator, single point] | 
O=C(Nc1ccc(Cn2cccn2)cc1)c1ccc(COc2cccc(Br)c2)cc1 | active: 12.6 µM | 
CC1=C(C#N)C(C(F)(F)F)(C(F)(F)F)N=C(c2ccco2)N1 | inconclusive: 0.0316 µM [activator, full curve, poor fit] | 
Cn1nc(C(=O)Nc2ccc(S(=O)(=O)N3CCCC3)cc2)ccc1=O | inconclusive: 6.31 µM [activator, partial curve] | 
CC(Nc1oc(-c2ccccc2)nc1-c1ccc(C(F)(F)F)cc1)c1ccccc1 (stereo unspecified) |  | inactive: 2.65%
Cn1c(NCc2ccccc2F)nc2ccccc21 | active: 12.6 µM | 
COCCN1C=C(C(=O)OC)C(c2cc(Br)c(OC)c(OC)c2)C(C(=O)OC)=C1 | inconclusive: 35.5 µM [activator, partial curve, poor fit] | 
O=C(Cn1ncc2c3ccccc3n(Cc3ccccc3)c2c1=O)NCc1ccccc1 | inconclusive: 4.47 µM [activator, single point] | 
Fc1ccc(-c2nnc(CN3CCN(c4ccccn4)CC3)o2)cc1 |  | inactive: -7.51%
O=C(O)CNC(=O)[C@H]1NC(C(F)(F)F)(C(F)(F)F)OC1(C(F)(F)F)C(F)(F)F |  | inactive: 7.82% [at 9.22 µM]
CC(C)(C)OC(=O)N1CCC(c2c(C(=O)O)cnn2-c2ccc(F)cc2F)CC1 | inconclusive: 2.82 µM [activator, partial curve] | 
